Measurements as given in paper PMC9398005.
Results are given in words; binding and its absence hold for the method and conditions named. For some of these results: In cells and extracts the contact can be indirect. Some entries that bind do so weakly or less than the wild type. For some of these results: Tags and fused reporters may be left off the sequences shown.

The chains behind the UniProt entries cited, without tags or fusion partners. Where a name states a change or a piece, a line headed by the entry shows the natural chain unless it says otherwise.
UniProt P31266: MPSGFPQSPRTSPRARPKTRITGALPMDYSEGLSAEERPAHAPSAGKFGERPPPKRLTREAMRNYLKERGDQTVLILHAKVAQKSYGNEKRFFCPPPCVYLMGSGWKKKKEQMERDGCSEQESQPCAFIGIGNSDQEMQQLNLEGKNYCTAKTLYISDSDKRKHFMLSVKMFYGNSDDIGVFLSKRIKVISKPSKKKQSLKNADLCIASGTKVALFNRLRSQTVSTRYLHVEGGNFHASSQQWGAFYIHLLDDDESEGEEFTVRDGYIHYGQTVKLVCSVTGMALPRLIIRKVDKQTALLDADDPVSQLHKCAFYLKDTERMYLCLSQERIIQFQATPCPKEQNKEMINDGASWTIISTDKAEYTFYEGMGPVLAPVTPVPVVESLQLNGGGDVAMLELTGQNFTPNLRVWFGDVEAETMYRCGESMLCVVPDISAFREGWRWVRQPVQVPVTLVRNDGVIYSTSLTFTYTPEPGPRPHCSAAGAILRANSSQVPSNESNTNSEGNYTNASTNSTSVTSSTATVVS
UniProt Q62504: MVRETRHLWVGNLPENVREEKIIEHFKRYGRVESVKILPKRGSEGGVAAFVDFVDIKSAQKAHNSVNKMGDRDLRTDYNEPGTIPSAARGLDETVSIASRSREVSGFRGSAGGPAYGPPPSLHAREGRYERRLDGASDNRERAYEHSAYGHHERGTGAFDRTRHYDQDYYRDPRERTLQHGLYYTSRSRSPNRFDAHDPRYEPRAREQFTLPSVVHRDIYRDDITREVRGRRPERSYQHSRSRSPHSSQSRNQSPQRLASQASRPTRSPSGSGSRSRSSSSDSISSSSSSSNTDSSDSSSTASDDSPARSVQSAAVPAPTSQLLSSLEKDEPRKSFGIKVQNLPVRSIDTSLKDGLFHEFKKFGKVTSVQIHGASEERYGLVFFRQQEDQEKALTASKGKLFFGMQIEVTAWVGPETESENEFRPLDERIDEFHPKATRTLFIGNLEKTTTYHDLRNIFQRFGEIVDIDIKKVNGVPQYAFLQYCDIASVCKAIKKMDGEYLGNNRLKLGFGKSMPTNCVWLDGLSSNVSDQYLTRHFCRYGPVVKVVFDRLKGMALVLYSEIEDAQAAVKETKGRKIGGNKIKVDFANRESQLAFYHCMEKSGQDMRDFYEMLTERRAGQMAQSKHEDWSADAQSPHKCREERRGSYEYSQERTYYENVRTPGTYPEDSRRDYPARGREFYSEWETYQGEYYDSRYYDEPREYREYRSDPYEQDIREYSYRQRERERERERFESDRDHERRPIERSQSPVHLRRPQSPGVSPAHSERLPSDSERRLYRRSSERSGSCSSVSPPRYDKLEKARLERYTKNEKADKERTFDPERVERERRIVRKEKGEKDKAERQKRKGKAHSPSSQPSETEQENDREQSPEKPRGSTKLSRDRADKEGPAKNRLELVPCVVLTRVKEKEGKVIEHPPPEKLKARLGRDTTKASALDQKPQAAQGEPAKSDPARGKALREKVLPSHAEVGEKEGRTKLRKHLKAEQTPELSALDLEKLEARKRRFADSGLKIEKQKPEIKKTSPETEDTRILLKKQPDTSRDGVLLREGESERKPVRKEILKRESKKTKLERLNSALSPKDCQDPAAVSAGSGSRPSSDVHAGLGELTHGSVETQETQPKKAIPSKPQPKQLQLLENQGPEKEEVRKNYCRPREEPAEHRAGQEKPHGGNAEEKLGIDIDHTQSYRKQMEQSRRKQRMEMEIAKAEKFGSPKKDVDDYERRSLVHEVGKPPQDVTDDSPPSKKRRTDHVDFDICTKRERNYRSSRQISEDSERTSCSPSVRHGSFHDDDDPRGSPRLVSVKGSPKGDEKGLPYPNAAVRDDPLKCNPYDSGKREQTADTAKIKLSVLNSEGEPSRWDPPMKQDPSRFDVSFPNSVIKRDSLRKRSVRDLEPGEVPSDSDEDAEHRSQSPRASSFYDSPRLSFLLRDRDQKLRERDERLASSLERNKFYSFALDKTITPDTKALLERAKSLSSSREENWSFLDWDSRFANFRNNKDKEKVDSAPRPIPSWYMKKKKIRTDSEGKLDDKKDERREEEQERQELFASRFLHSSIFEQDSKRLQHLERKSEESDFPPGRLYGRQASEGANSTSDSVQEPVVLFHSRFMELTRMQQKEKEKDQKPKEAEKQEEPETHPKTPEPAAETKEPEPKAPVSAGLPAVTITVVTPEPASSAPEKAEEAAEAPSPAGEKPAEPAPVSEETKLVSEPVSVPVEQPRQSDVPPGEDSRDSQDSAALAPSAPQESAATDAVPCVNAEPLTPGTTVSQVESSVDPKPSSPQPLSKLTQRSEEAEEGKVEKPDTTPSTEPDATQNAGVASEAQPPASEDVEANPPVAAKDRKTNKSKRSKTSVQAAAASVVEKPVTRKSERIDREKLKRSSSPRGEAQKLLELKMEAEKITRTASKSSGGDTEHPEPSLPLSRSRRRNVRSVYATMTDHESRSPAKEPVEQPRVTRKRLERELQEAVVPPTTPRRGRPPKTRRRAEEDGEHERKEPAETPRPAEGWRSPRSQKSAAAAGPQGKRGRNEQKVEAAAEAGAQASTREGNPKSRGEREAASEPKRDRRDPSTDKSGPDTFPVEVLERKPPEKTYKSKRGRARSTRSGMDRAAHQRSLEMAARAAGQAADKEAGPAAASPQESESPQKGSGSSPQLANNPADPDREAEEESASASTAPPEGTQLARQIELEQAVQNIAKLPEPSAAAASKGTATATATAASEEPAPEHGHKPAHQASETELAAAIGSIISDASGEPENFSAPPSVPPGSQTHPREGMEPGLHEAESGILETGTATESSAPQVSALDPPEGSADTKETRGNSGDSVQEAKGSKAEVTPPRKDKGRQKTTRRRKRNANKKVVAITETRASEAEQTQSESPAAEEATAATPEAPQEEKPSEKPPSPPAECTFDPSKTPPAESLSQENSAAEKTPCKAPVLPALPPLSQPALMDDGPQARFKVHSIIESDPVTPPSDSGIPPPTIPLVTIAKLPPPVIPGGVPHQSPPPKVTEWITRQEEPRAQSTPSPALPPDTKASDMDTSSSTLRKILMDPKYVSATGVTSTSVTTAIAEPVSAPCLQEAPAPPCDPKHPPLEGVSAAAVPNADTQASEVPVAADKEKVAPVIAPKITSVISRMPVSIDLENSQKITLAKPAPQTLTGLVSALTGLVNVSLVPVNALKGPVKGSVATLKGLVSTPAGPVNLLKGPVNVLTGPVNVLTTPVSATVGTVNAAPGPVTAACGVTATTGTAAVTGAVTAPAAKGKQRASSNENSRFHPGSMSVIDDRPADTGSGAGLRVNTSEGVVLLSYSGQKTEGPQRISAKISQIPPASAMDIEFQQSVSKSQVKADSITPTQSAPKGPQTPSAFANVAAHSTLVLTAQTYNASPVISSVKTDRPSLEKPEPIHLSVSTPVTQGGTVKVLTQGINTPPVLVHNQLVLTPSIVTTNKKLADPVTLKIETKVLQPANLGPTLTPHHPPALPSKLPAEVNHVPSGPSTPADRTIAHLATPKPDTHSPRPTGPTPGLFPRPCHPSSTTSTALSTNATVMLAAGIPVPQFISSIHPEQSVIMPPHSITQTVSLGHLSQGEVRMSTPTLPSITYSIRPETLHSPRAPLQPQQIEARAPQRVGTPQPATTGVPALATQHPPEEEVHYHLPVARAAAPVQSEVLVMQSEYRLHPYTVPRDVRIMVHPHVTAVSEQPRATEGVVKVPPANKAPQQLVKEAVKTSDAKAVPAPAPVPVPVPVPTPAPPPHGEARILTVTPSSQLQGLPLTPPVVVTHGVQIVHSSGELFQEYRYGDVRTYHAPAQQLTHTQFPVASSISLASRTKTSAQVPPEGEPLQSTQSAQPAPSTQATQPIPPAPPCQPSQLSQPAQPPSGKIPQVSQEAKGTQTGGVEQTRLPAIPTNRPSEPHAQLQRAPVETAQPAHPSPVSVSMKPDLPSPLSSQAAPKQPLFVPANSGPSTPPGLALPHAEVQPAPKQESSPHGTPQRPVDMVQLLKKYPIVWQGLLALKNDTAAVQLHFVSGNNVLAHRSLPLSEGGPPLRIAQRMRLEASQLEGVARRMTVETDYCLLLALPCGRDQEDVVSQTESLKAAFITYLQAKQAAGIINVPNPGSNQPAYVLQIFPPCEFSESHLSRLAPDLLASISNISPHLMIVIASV
UniProt Q92585: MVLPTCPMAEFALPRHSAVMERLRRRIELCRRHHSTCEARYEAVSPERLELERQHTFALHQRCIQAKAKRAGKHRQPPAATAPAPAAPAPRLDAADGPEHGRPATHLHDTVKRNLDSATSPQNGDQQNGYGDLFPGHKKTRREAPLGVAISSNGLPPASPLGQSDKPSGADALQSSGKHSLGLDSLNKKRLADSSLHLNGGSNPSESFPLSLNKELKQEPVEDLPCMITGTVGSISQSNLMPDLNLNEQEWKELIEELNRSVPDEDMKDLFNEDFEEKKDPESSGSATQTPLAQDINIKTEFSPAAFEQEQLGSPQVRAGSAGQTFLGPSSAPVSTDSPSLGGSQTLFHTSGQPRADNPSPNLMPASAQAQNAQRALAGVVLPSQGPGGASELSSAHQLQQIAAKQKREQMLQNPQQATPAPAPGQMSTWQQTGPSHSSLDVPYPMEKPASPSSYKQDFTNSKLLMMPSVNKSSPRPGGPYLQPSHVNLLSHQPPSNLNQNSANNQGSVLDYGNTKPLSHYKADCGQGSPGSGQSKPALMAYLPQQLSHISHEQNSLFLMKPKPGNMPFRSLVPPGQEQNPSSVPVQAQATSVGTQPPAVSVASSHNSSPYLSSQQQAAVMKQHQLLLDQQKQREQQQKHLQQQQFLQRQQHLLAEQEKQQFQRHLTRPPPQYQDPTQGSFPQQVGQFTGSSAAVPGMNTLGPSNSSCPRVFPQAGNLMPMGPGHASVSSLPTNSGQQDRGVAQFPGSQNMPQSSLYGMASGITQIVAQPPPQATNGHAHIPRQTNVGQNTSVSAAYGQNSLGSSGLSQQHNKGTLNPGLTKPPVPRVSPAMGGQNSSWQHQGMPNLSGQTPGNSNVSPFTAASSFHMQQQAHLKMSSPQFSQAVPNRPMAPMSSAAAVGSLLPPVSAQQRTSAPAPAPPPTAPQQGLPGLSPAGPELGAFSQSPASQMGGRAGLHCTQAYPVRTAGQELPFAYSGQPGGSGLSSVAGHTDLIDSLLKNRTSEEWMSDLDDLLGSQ

What was measured:
[1] = target: T1, Flag-SHARP-(RBPID) (pcDNA-3.1-Flag1-hsSHARP (2770-3127)) (human) (UniProt Q96T58); test: co-IP; HEK293 cells transfected with GFP-, Flag-tagged or untagged constructs; CHAPS lysate; anti-Flag (M2) agarose overnight at 4°C; Western blot with anti-GFP or anti-Maml1
T1 sequence: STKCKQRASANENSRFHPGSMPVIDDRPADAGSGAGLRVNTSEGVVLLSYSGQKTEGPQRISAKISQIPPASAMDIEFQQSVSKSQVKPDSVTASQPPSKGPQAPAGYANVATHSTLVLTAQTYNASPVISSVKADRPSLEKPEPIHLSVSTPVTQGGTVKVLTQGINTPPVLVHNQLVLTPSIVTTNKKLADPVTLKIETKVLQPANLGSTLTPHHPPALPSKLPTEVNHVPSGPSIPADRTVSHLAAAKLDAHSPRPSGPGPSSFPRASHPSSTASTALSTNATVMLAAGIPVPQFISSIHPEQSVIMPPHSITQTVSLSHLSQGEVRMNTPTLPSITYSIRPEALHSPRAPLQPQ

[2] = target: Flag-Rbpj K195E (pcDNA3-Flag-Rbpj(K195E)) (mouse) (UniProt P31266); test: as above
[3] = target: Flag-Rbpj WT (pcDNA3-Flag-Rbpj(WT)) (mouse) (UniProt P31266); test: as above
[4] = target: Flag-Rbpj E89G (pcDNA3-Flag-Rbpj(E89G)) (mouse) (UniProt P31266); test: as above
[5] = target: Gal4-SHARP (pFA-CMV-MINT) (UniProt Q62504); test: two-hybrid; mammalian two-hybrid in HeLa cells: Gal4-SHARP (300 ng), Rbpj-VP16 (50 ng), pFR-Luc reporter (500 ng); luciferase

Substance | binding [1] | binding [5] | further results
GFP-Rbpj E89G (from UniProt P31266 1-526) | binds | – | –
GFP-Rbpj K195E (from UniProt P31266 1-526) | binds | – | –
GFP-Rbpj WT (from UniProt P31266 1-526) | binds | – | –
Maml1 (from UniProt Q92585 1-1016) | – | – | binding [2]: binds; binding [3]: binds; binding [4]: binds
Rbpj-VP16 E89G (pcDNA3-Rbpj-VP16(E89G)) (from UniProt P31266 1-526) | – | binds | –
Rbpj-VP16 F261A/L388A (from UniProt P31266 1-526) | – | no binding | –

Now from value to substance, other results behind:

binding [1] | binding [5] | Substance | further results
– | binds | Rbpj-VP16 K195E (pcDNA3-Rbpj-VP16(K195E)) (from UniProt P31266 1-526) | –
– | binds | Rbpj-VP16 WT (pcDNA3-Rbpj-VP16(WT)) (from UniProt P31266 1-526) | –
